{
  "source": "PubChem BioAssay AID504332",
  "about": "(National Center for Advancing Translational Sciences (NCATS), 2011)",
  "note": "Among all 350,000 compounds or so, about 31,000 (8.9%) were called active. Inconclusive means that the source gave no clear call. Such entries were picked first, then a sample of the others. The call rests on the fitted dose curve; in most records, active means well fitted inhibition curve with a large enough effect; inconclusive means small, poorly fitted or top-dose-only effect; inactive means no such curve, though single readings can be large or run the other way. Potencies beside an inconclusive call are fits to weak or partial responses and may not hold up. On the % scale 0 is the no-effect control and ±100 the full control effect; potency means the concentration at half of the fitted maximal effect; tags describe the fitted curve by direction and shape.",
  "data": [
    {"target": "Histone-lysine N-methyltransferase EHMT2 (Homo sapiens) (UniProt Q96KQ7)", "sequence (Q96KQ7 whole entry, looked up)": "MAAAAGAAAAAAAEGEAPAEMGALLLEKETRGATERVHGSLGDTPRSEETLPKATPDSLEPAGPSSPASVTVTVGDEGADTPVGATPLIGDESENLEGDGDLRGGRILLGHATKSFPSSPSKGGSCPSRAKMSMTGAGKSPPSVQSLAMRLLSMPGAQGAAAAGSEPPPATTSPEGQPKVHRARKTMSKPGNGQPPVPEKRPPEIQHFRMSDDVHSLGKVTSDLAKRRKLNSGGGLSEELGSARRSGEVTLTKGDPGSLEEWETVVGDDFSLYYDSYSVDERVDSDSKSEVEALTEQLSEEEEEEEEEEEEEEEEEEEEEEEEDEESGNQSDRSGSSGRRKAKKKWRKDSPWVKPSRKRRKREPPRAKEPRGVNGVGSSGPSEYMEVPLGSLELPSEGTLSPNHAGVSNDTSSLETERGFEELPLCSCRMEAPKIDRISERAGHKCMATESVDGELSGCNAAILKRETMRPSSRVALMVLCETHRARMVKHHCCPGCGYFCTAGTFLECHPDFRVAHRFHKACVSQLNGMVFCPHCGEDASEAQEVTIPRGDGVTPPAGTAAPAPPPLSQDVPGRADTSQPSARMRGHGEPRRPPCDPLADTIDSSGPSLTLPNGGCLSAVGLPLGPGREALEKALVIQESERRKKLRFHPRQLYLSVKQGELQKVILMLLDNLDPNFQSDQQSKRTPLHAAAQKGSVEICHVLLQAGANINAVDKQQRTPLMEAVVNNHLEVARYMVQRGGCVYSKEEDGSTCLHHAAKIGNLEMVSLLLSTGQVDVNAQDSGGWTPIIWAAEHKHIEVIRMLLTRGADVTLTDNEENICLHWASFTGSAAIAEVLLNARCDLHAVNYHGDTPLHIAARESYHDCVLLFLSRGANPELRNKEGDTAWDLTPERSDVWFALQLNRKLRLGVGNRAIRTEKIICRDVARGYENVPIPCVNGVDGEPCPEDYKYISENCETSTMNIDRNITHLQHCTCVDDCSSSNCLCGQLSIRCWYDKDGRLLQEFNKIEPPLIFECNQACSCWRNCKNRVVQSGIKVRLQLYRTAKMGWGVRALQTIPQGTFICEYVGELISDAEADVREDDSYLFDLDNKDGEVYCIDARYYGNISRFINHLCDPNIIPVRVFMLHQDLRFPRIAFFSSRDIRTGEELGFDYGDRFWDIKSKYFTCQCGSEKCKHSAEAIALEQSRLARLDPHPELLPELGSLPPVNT", "assay": "qHTS Assay for Inhibitors of Histone Lysine Methyltransferase G9a; further: nearly all actives have a fitted effect of over 75% in size", "conditions": "G9a H3K9 monomethylation, AlphaScreen, 2 h; activity, negative = inhibition: at 59 µM (top of the series) unless noted", "in_short": "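Methyltransferase reactions run at room temperature for 2 h (20 nM enzyme, 500 nM biotin-H3K9 peptide, 20 uM SAM) after a 15 min compound preincubation; product detected by AlphaScreen beads and anti-H3K9me1 antibody.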", "values": [
      {"smiles": "CC(NC(=O)CCNS(=O)(=O)c1cccc2nonc12)c1ccccc1", "note": "(configuration not stated)", "Potency": "inconclusive: 89.1 µM [inhibitor, single point]"},
      {"smiles": "CCOc1ccc(N(CC(=O)NCc2ccccc2)S(C)(=O)=O)cc1", "activity, negative = inhibition": "inactive: 5.27% [at 102 µM]"},
      {"smiles": "O=C(CSc1nnc(-c2ccccc2)c(-c2ccccc2)n1)NCCc1ccccc1", "Potency": "inconclusive: 20 µM [inhibitor, partial curve, poor fit]"},
      {"smiles": "CCOC(=O)C1=C(COc2ccc(C)cc2)NC(=O)NC1c1cc(C)ccc1C", "note": "(configuration not stated)", "Potency": "inconclusive: 79.4 µM [inhibitor, single point]"},
      {"smiles": "O=C(NCCc1ccc(F)cc1)C(=O)NCC(c1cccs1)S(=O)(=O)c1ccc(Cl)cc1", "note": "(configuration not stated)", "activity, negative = inhibition": "inactive: -1.56%"},
      {"smiles": "Cc1cc(S(=O)(=O)NCCCN2CCOCC2)c(C)cc1Cl", "Potency": "inconclusive: 20 µM [inhibitor, partial curve, poor fit]"},
      {"smiles": "C=C(C)COc1ccc(-c2nc(N)ncc2-c2ccc(Cl)cc2)c(O)c1", "activity, negative = inhibition": "inactive: -40.8% [at 102 µM]"},
      {"smiles": "CC(C)(C)NC(=O)C(c1c[nH]c2ccccc12)N(C(=O)Cn1nnc(-c2ccc(F)cc2)n1)c1cccc(O)c1", "note": "(configuration not stated)", "activity, negative = inhibition": "inactive: -21%"},
      {"smiles": "C=CCn1cccc(C(=O)Nc2ccc(C)c(C)c2)c1=O", "activity, negative = inhibition": "inactive: -4.34% [at 102 µM]"},
      {"smiles": "COc1cccc(C(=O)N/N=C(\\C)c2cccc(NC(=O)c3ccc(F)cc3)c2)c1OC", "Potency": "inconclusive: 20 µM [inhibitor, partial curve, poor fit]"},
      {"smiles": "COc1ccc2c(C)c(CCC(=O)NCCc3ccc(OC)c(OC)c3)c(=O)oc2c1", "activity, negative = inhibition": "inactive: -0.166%"},
      {"smiles": "COc1ccc(C(=O)N/C(=C\\c2cn(C)c3ccccc23)C(=O)NCCN2CCOCC2)cc1OC", "Potency": "active: 50.1 µM"},
      {"smiles": "COCC(C)NC(=O)NC1(C(F)(F)F)Oc2ccc(Cl)cc2O1", "note": "(configuration not stated)", "Potency": "active: 35.5 µM"},
      {"smiles": "O=C(O)c1cc([N+](=O)[O-])c(Sc2nc3ccccc3[nH]2)c([N+](=O)[O-])c1", "Potency": "active: 39.8 µM"},
      {"smiles": "CC1=C(C(=O)Nc2ccccn2)C(c2ccc(Br)cc2)NC(=S)N1", "note": "(configuration not stated)", "Potency": "inconclusive: 89.1 µM [inhibitor, single point]"},
      {"smiles": "Cc1c(C(=O)N2CCCc3ccccc32)oc2ccc(S(=O)(=O)N3CCOCC3)cc12", "Potency": "inconclusive: 50.1 µM [inhibitor, partial curve, poor fit]"},
      {"smiles": "COc1cccc(C2CC(c3ccc(NS(C)(=O)=O)cc3)=NN2C(=O)c2ccccc2)c1OC", "note": "(configuration not stated)", "Potency": "inconclusive: 70.8 µM [inhibitor, single point]"},
      {"smiles": "O=C(O)c1cc(=O)n(Cc2ccccc2)c(=O)[nH]1", "Potency": "active: 15.8 µM"},
      {"smiles": "CCCN(C(=O)Cc1nc(-c2ccc(OC)cc2)no1)c1ccccc1C", "Potency": "inconclusive: 25.1 µM [inhibitor, partial curve, poor fit]"},
      {"smiles": "CSCC(=O)NS(=O)(=O)c1ccc(C)cc1", "Potency": "inconclusive: 89.1 µM [inhibitor, single point]"},
      {"smiles": "CCOC(=O)c1ccc(NC(=O)CC2C(=O)N(c3cccc(OC)c3)C(=O)N2Cc2cccnc2)cc1", "note": "(configuration not stated)", "activity, negative = inhibition": "inactive: -8.53%"},
      {"smiles": "CCn1c2ccccc2c2cc(CN3CCN(Cc4ccc(Cl)cc4)CC3)ccc21", "Potency": "active: 0.501 µM"},
      {"smiles": "Cc1cc(C)nc(/N=C2\\NC(=O)CC3C(=O)NCCN23)n1", "note": "(configuration not stated)", "Potency": "inconclusive: 1.58 µM [inhibitor, partial curve, poor fit]"},
      {"smiles": "CCCCNC(=O)c1cc(-c2ccc(OC)c(OC)c2)on1", "Potency": "inconclusive: 79.4 µM [inhibitor, partial curve, poor fit]"},
      {"smiles": "COC(=O)c1cc(NC(=S)NC(=O)c2ccccc2)ccc1N1CCOCC1", "Potency": "inconclusive: 79.4 µM [inhibitor, partial curve, poor fit]"},
      {"smiles": "CC1=NN(C2=NS(=O)(=O)c3ccccc32)C(C)(O)C1", "note": "(configuration not stated)", "activity, negative = inhibition": "inactive: 5.36% [at 102 µM]"},
      {"smiles": "CCN(CC)c1ccc(NS(=O)(=O)c2cc(-c3onc(C)c3C)ccc2OC)c(C)c1", "Potency": "active: 8.91 µM"},
      {"smiles": "O=C(CSc1nc2ccccc2s1)NC(=O)NCc1ccco1", "Potency": "active: 44.7 µM"},
      {"smiles": "CN1/C(=C/C2CC(=O)N(c3cccc4ccccc34)C2=O)C(C)(C)c2ccccc21", "note": "(configuration not stated)", "Potency": "inconclusive: 39.8 µM [inhibitor, single point]"},
      {"smiles": "CNc1csc(C)c(C)c1=O", "activity, negative = inhibition": "inconclusive: -97.4% [inhibitor]"},
      {"smiles": "N#C/C(=C(/O)COc1ccccc1)c1nc2ccccc2s1", "Potency": "inconclusive: 89.1 µM [inhibitor, single point]"},
      {"smiles": "CCOc1ccc(NC(=S)NCC(c2cccnc2)N2CCOCC2)cc1", "note": "(configuration not stated)", "activity, negative = inhibition": "inactive: -27.6% [at 102 µM]"},
      {"smiles": "C=CCn1c(N)c(C(=O)N2CCOCC2)sc1=S", "activity, negative = inhibition": "inconclusive: -94.7% [inhibitor]"},
      {"smiles": "CN(C)CCCN(C(=O)c1ccc([N+](=O)[O-])o1)c1nc2cc3c(cc2s1)OCO3", "Potency": "active: 56.2 µM"},
      {"smiles": "Cc1ccc(CN(C(=O)c2ccco2)C2CCS(=O)(=O)C2)cc1", "note": "(configuration not stated)", "Potency": "inconclusive: 89.1 µM [inhibitor, single point]"},
      {"smiles": "O=C(Nc1ccc2c(c1)OCO2)O[C@@H]1C[C@H]2CCCC(=O)N3CC[C@@H](C1)[C@@H]23", "Potency": "inconclusive: 89.1 µM [inhibitor, single point]"},
      {"smiles": "Cc1cc(O)c(C(c2ccccc2)N2CCN(c3ccccc3)CC2)c(=O)n1Cc1ccco1", "note": "(configuration not stated)", "Potency": "inconclusive: 25.1 µM [inhibitor, single point]"},
      {"smiles": "Cc1ccc(NC(=O)COc2ccccc2C(=O)NCc2ccccc2)cc1", "activity, negative = inhibition": "inactive: 16.2% [at 2.33 µM]"},
      {"smiles": "Cc1ccc(S(=O)(=O)NN=C2CCN(Cc3ccccc3)CC2)cc1", "activity, negative = inhibition": "inactive: 18.4%"},
      {"smiles": "S=C(Nc1cccc(Cl)c1)Nc1cccc2cnccc12", "Potency": "inconclusive: 7.94 µM [inhibitor, full curve, poor fit]"},
      {"smiles": "O=C(/C=C/c1ccccc1)/C=C/c1ccccc1", "Potency": "inconclusive: 39.8 µM [inhibitor, single point]"},
      {"smiles": "O=S(=O)(NCc1ccccn1)c1cc(Cl)ccc1Cl", "Potency": "active: 79.4 µM"},
      {"smiles": "Cc1ccc(NS(=O)(=O)c2cc(C(=O)Nc3cccc([N+](=O)[O-])c3)ccc2C)cc1", "Potency": "inconclusive: 3.16 µM [inhibitor, single point]"},
      {"smiles": "Cc1sc2ncnc(Sc3ccccc3C(=O)Nc3ccc(Br)cc3)c2c1C", "Potency": "active: 8.91 µM"},
      {"smiles": "O=C(CC1C(=O)NCCN1Cc1cccc(C(F)(F)F)c1)NCCCOc1cccnc1", "note": "(configuration not stated)", "Potency": "inconclusive: 89.1 µM [inhibitor, single point]"},
      {"smiles": "O=C1c2ccc3c4c(ccc(c24)C(=O)N1NC(=O)C(F)(F)F)CC3", "Potency": "inconclusive: 89.1 µM [inhibitor, single point]"},
      {"smiles": "CC(C)c1ccc(N(CC(=O)NCC2CCCO2)C(=O)CCC(=O)Nc2nccs2)cc1", "note": "(configuration not stated)", "activity, negative = inhibition": "inactive: 11.7% [at 102 µM]"},
      {"smiles": "Cc1cc(S(=O)(=O)Nc2ccc(C(=O)NCCCN3CCCC3=O)cc2)ccc1F", "activity, negative = inhibition": "inactive: -5.05% [at 102 µM]"},
      {"smiles": "O=C(Oc1ccccc1)c1cccc2cccnc12", "activity, negative = inhibition": "inconclusive: -78.3% [inhibitor]"},
      {"smiles": "O=C(Nc1ccccc1C(=O)NCc1ccco1)c1ccccc1", "activity, negative = inhibition": "inconclusive: -57.3% [inhibitor]"},
      {"smiles": "Cc1ccc(C)c(NC(=O)CN2CCN(C3CCCCC3)C(=O)C2=O)c1", "activity, negative = inhibition": "inactive: 1.27% [at 12.7 µM]"},
      {"smiles": "CN(C(=O)c1ccccc1C(=O)OCC(=O)Nc1ccc(S(N)(=O)=O)cc1)c1ccccc1", "activity, negative = inhibition": "inactive: -4.27% [at 102 µM]"},
      {"smiles": "Cc1ccc(CNC(=S)Nc2ccc(NS(=O)(=O)c3ccc(C)cc3)cc2)cc1", "activity, negative = inhibition": "inactive: 22.7% [at 102 µM]"},
      {"smiles": "Cc1cc(=O)n2nc(N3CCC(C(=O)NCc4cccnc4)CC3)sc2n1", "activity, negative = inhibition": "inactive: 0.0982% [at 12.7 µM]"},
      {"smiles": "COc1ccc2c(CCNC(=O)Nc3ccccc3)c[nH]c2c1", "Potency": "inconclusive: 70.8 µM [inhibitor, partial curve, poor fit]"},
      {"smiles": "Cc1ccc(C(=O)Nc2nnc(S(=O)(=O)N(C)Cc3ccco3)s2)cc1", "Potency": "inconclusive: 7.94 µM [inhibitor, partial curve, poor fit]"},
      {"smiles": "CCN(CC(=O)Nc1c(F)cccc1F)C(=O)CN(C)S(=O)(=O)c1ccc(F)cc1", "activity, negative = inhibition": "inactive: -31.1% [at 102 µM]"},
      {"smiles": "CN(C)c1ccc(/C=C/c2ccncc2)cc1", "Potency": "inconclusive: 3.55 µM [inhibitor, single point]"},
      {"smiles": "CCCc1nc2c([nH]1)c(=O)n(C)c(=O)n2C", "Potency": "inconclusive: 0.891 µM [inhibitor, single point]"},
      {"smiles": "N#Cc1ccccc1OCCCN1CCC(Cc2ccccc2)CC1", "Potency": "active: 31.6 µM"},
      {"smiles": "COc1ccc(N2CCN(C(=O)NC(=O)c3ccc(Cl)cc3)CC2)cc1", "Potency": "inconclusive: 14.1 µM [inhibitor, full curve]"},
      {"smiles": "C=CCN(CC=C)S(=O)(=O)c1ccc2nsnc2c1", "activity, negative = inhibition": "inconclusive: -74% [inhibitor]"},
      {"smiles": "COc1cc(/C=C/c2nc3ccccc3s2)cc(OC)c1O", "Potency": "active: 50.1 µM"},
      {"smiles": "CCC(C)(C)C1CCC(=NNc2nc3ccccc3[nH]2)CC1", "note": "(configuration not stated)", "Potency": "inconclusive: 28.2 µM [inhibitor, single point]"},
      {"smiles": "CN1CCN(c2cc(=O)n(-c3ccc(Cl)cc3)c(=O)[nH]2)CC1", "Potency": "inconclusive: 89.1 µM [inhibitor, single point]"},
      {"smiles": "CC1=CCC(C(=O)O)C(C(=O)NC2CCCCC2)C1", "note": "(configuration not stated)", "Potency": "active: 31.6 µM"},
      {"smiles": "O=C(Nc1ccc(Cl)cc1)N1CCC(CO)(Cc2ccccc2)CC1", "activity, negative = inhibition": "inactive: 9.15% [at 102 µM]"},
      {"smiles": "CCn1cc(C(=O)N2CCc3ccccc32)c(=O)c2cc(S(=O)(=O)N3CCCCCC3)ccc21", "Potency": "inconclusive: 79.4 µM [inhibitor, single point]"},
      {"smiles": "O=C(CCCc1nc2ccccc2s1)Nc1ccc(N2CCOCC2)cc1", "Potency": "inconclusive: 89.1 µM [inhibitor, partial curve, poor fit]"},
      {"smiles": "O=C(Cc1cccs1)N/N=C/C=C/c1ccccc1", "Potency": "inconclusive: 7.08 µM [inhibitor, single point]"},
      {"smiles": "CCCCC[C@H]1CN(CCCC)C(=O)[C@@H]1CC(=O)NCc1ccccc1", "Potency": "inconclusive: 89.1 µM [inhibitor, single point]"},
      {"smiles": "O=C1c2ccccc2C(O)(Cc2ccccc2)N1C1CCCCC1", "note": "(configuration not stated)", "Potency": "inconclusive: 28.2 µM [inhibitor, single point]"}
    ]}
  ]
}
